Reference: ChEMBL document CHEMBL4888484, “Replenishing the malaria drug discovery pipeline: Screening and hit evaluation of the MMV Hit Generation Library 1 (HGL1) against asexual blood stage Plasmodium falciparum ,using a nano luciferase reporter read-out” (2022)
“And” between values parts separate entries of the source, which are not always exact repeats. Equal values may be shown once. In all, about 150,000 compounds went through this assay and about 540 (0.36%) showed an effect of 50% or more. The list shows a part of the results.

Test system: Plasmodium falciparum
Assay: Primary screen in NF54 nanoGlo assay, in single point, at 2uM, 72h; a lower Z score goes with more inhibition
Format: functional, Erythrocyte
Details: timepoint 72 hour

Row | Compound | % Inhibition [%] | Z score | % Inhibition (2 µM)
1 | COc1ccc(-c2ccc(C(=O)N3CC[C@H]4CC[C@@H](C3)N4C)cc2)c(C)c1 | 12 | -1.59 | –
2 | C[C@H]1CN(C(=O)c2cncc(O)c2)CCN1CC(F)(F)F | -5 | 0.73 | –
3 | CC(C)c1ccccc1NC(=O)N1CCc2[nH][nH]c(=O)c2CC1 | 0 | 0.04 | –
4 | CCN(CC)c1ccc(C(=O)NCc2c(C)cc(C)[nH]c2=O)cn1 | -11 | 1.45 | –
5 | COCC1(CNC(=O)N(Cc2ccsc2)C2CCCC2)CC1 | -4 | 0.51 | –
6 | O=C1NCCN1C(=O)N1C2CCC1CC(n1ccnn1)C2 (centres undefined) | -8 | 1.26 | –
7 | Cc1ccc(C(=O)O)c(N2C[C@H]3CCC[C@@H](C3)C2)n1 | -7 | 0.91 | –
8 | Clc1ccccc1CCNC(=NC1CCOCC1)NC1CC1 | -8 | 0.77 | –
9 | NS(=O)(=O)c1ccc(C(=O)N2CCC(F)(F)C2)o1 | -20 | 3.37 | –
10 | O=C(c1cccc(-n2cccn2)n1)N(CC1CC1)C1CC1 | -3 | 0.31 | –
11 | CCOC(=O)N1CCC(NC(C)C(O)c2ccc(F)cc2)CC1 (centres undefined) | -8 | 0.96 | –
12 | CC1CN(C(=O)NCC2CCCS(=O)(=O)C2)CC(c2ccsc2)O1 (centres undefined) | -5 | 0.75 | –
13 | COc1nnc(NC(=O)NC[C@H]2CCCCS2(=O)=O)s1 | -6 | 0.93 | –
14 | CC(C)c1cccc(C(=O)N2C[C@@H](C)N(CCO)[C@@H](C)C2)n1 | 6 | -0.72 | –
15 | CN(C)c1ncccc1COC(=O)c1cc[nH]c1C1CC1 | 2 | -0.28 | –
16 | CC1OCCC12CN(C(=O)c1ccc(Cl)c(Cl)c1)CCO2 (centres undefined) | -8 | 1.15 | –
17 | O=C(O)[C@@H]1CN(c2nc(C3CC3)nc3[nH]ccc23)C[C@H]1C(F)(F)F | 19 | -2.46 | –
18 | NC(=O)CCN1CCN(C(=O)CCN2Cc3ccccc3O[C@H](c3ccccc3F)C2)CC1 | -13 | 2.04 | –
19 | Cc1nn(C)c(C)c1CCC(=O)N1CCC[C@H](C(N)=O)C1 | 2 | -0.32 | –
20 | COC(=O)[C@@H]1CCCN1C1CCN(C(=O)c2cc(O)ccc2C)CC1 | -8 | 1.16 | –
21 | CNC(=O)c1ccc(C(=O)N2CCC([C@@H]3CCCO3)CC2)cn1 | -17 | 2.33 | –
22 | O=C(NCCc1ccccc1)[C@H]1CC[C@H](Cn2cnnn2)CC1 | -7 | 0.95 | –

Row | Compound | % Inhibition [%] | Z score | % Inhibition (2 µM)
23 | Cc1ccc(F)c(C(=O)N2CCNC[C@H]2C(=O)N2CCN(C)CC2)c1Cl | 0 | -0.05 | –
24 | COc1cccc(C2c3[nH]c4ccccc4c3C[C@H]3C(=O)N(c4ccc(C(=O)NCCc5ccccc5F)cc4)C(=O)N23)c1 (some centres undefined) | 2 | -0.4 | –
25 | Cc1cc(CN2CCN(C)CC2)c(C)c(CN(CCO)Cc2cccs2)c1 | -3 | 0.49 | –
26 | CS(=O)(=O)c1c(Cl)cccc1NC(=O)N1CCC2(CCC2)C1 | -20 | 2.01 | –
27 | Cc1cccc([C@H](C)NC(=O)c2[nH]nc(C)c2Cl)n1 | -24 | 2.83 | –
28 | O=C(COc1ccc(Cl)cc1)N1CCCc2cnc(N3CCOCC3)nc21 | -9 | 1.31 | –
29 | CC(C)(C)c1ccc(C(=O)Nc2nc3n(n2)[C@H](c2ccc(Cl)cc2)CC(=O)N3)cc1 | -11 | 1.14 | –
30 | O=C(CCN1C(=O)CCC1=O)Nc1ncc(Cc2ccccc2)s1 | -4 | 0.8 | –
31 | C#CCN(CC#C)C(=O)c1cc(S(N)(=O)=O)cc(Cl)c1F | -4 | 0.65 | –
32 | CC(C)CN1CCCn2nc(CNc3ncnc4c3CCC4)cc2C1 | -1 | 0.14 | –
33 | O=C(CCCn1cnnn1)Nc1ccc(-c2nc[nH]n2)cc1 | – | – | 1% and -5%
34 | CS(=O)(=O)NC[C@H]1CCCN(c2nc(C(F)(F)F)ns2)C1 | -10 | 1.3 | –
35 | NC(=O)[C@@H]1CCCN1C(=O)c1csc2ccccc12 | -9 | 1.23 | –
36 | CCOC(=O)CN(C(=O)C1CCCOC1C)C(C)(C)C (centres undefined) | -3 | 0.42 | –
37 | C[C@H]1CCCN(C(=O)Nc2ncc(Cc3ccccc3)s2)C1 | -3 | 0.32 | –
38 | CCN(C(=O)c1ccc(-c2ccc(Cl)cc2F)cc1)C1CCOCC1 | -7 | 0.93 | –
39 | CCN1CCCN(S(=O)(=O)N2CC(C)CC(C)C2)CC1 (centres undefined) | -2 | 0.25 | –
40 | CNC(=O)[C@H](C1CCCC1)N1CCN(C(=O)c2ccc(Cl)cc2Cl)CC1 | 12 | -1.44 | –
41 | CC(=O)N1CCN(c2nnc(C)c(C)c2C#N)CC1 | -12 | 1.25 | –
42 | CC(=O)N1CCN(C2CN(Cc3ccc(F)cc3)CC2C)CC1 (centres undefined) | 4 | -0.33 | –
43 | N#Cc1c(CN2CCc3cncnc3C2)cn2ccccc12 | -1 | 0.23 | –
44 | Fc1cccnc1N1CCOC2(CCC2)C1 | -15 | 1.72 | –

Row | Compound | % Inhibition [%] | Z score | % Inhibition (2 µM)
45 | Cc1noc(C)c1CN1C[C@H]2CC[C@@H](C1)N(Cc1nnc(-c3ccccc3)o1)C2 | -23 | 2.23 | –
46 | Cc1nnc(CN(CCOc2ccccc2)C[C@H]2CCCO2)s1 | -9 | 1.34 | –
47 | O=C1[C@@H]2CC[C@@H](CN(c3nc4ccccc4s3)C2)N1Cc1ccccc1 | 6 | -1.22 | –
48 | CCNC(=O)NC(=O)CNc1cc(CO)ccc1C | -7 | 1.17 | –
49 | CC(C)C[C@@H]1N[C@H](C(=O)NC2CCCC2)Cc2cn(C)c3cccc1c23 | 36 | -4.04 | –
50 | CO[C@@H](CS(=O)(=O)Nc1cc(C#N)ccc1F)C1CC1 | 3 | -0.49 | –
51 | Cc1cc(CN=C(N)NC2CC2)ccc1F | -7 | 0.63 | –
52 | O=C(Nc1ccc(Nc2ncccn2)cc1)C1CCC(F)(F)CC1 | -2 | 0.38 | –
53 | COCCc1nc(CCn2ccc(C)n2)n(-c2ccc(C)cc2C)n1 | -7 | 1.01 | –
54 | CC1CCCC1(C#N)NC(=O)CCC(=O)OC(C)(C)C (centres undefined) | -6 | 0.63 | –
55 | CN1CC2(CN(C(=O)c3cc4cccc(Cl)c4s3)C2)OC1=O | -3 | 0.42 | –
56 | CCC(C)(C)c1ccc(OCCCCNC(=O)c2cc(-c3cccc(OC)c3)nn2-c2cc(C)ccc2C)c(C(C)(C)CC)c1 | -9 | 1 | –
57 | COCCN(Cc1ccc(OC)c(OCc2nc(CO)cs2)c1)C(=O)c1ccc(Cl)cc1 | -6 | 1.06 | –
58 | CC(C)CN(Cc1ccsc1)C(=O)c1cnc(N2CCOCC2)nc1 | -9 | 0.87 | –
59 | CN(CCc1ccccn1)c1cncc(Br)c1 | -11 | 1.43 | –
60 | O=C(NCc1ccc2c(c1)OCO2)[C@H]1CC(=O)N(C2CCCCCCC2)C1 | -5 | 0.86 | –
61 | COCCNC(=O)[C@H]1C[C@H](Oc2cccnc2)CN1S(=O)(=O)c1ccc(OC)cc1 | -16 | 3 | –
62 | Cn1cncc1CCC(=O)NCC1(c2cccc(F)c2F)CCCC1 | -1 | 0.07 | –
63 | CCC1CN(C(C)=O)CCC1NCc1cccc2[nH]ccc12 (centres undefined) | 6 | -0.76 | –
64 | COC(=O)[C@H](NC(=O)c1ccc2cc[nH]c2c1)c1cccc(O)c1 | -4 | 0.51 | –
65 | Cc1ncc(C(=O)Nc2ncccc2-c2ccccc2)c(C)n1 | -14 | 2.23 | –
66 | Cc1cc(C)c2c(CC(=O)N(C)[C@H]3COC[C@@H]3O)coc2c1C | 9 | -1.68 | –

Row | Compound | % Inhibition [%] | Z score | % Inhibition (2 µM)
67 | Cc1cnn([C@@H](C)CNC(=O)CCn2cncn2)c1 | -6 | 1.06 | –
68 | Cc1cc(=O)n2nc(-c3ccccc3)nc2n1CC(=O)Nc1ccc(F)cc1 | -8 | 1.04 | –
69 | Clc1ccc(Cn2ncc3c(N4CCCCC4)ncnc32)cc1 | 12 | -1.97 | –
70 | O=C(COc1ccc(N2C[C@@H](C(=O)NCCc3ccccc3)CC2=O)cc1)Nc1ccc(F)cc1 | -2 | 0.24 | –
71 | O=C(Nc1cnccn1)c1cccc(-n2ccnn2)c1 | 2 | -0.47 | –
72 | CCOc1oc(C(=O)NCCc2ccc(S(N)(=O)=O)cc2)nc1C | -10 | 2.01 | –
73 | COc1ccc(C(=O)NC2CCS(=O)(=O)CC2)cn1 | -20 | 2.19 | –
74 | COc1ccc(C(=O)N2Cc3cccnc3C2)cc1F | -16 | 1.82 | –
75 | CC[C@H]1CCCN(CC(=O)Nc2sc3c(c2C#N)CCCCC3)C1 | -8 | 1.22 | –
76 | CC1CC1NC(=NCC1CCCO1)NCc1nc(C2CC2)no1 (centres undefined) | -5 | 0.66 | –
77 | CC[C@@H](CO)NC(=O)Nc1ccccc1N(C)CC | 4 | -0.61 | –
78 | Cc1ccccc1NC(=O)c1cccn1-c1cccnc1C | -5 | 0.5 | –
79 | CN(Cc1cc2cc(F)ccc2[nH]1)S(=O)(=O)C1CC1 | -14 | 1.45 | –
80 | COc1ccc(Oc2ccc(-c3noc([C@H]4CC(=O)N(c5ccccc5)C4)n3)cc2)cc1 | -3 | 0.31 | –
81 | COCCN(CC(=O)N1N=C(c2cccn2C)C[C@H]1c1ccccc1)C(=O)C(C)C | -5 | 0.56 | –
82 | O=C(N1CCCC1)N1C[C@@H]2[C@@](C(F)(F)F)(CCCS2(=O)=O)C1 | 3 | -0.49 | –
83 | COc1ccc(CNCc2cc(O)c3cc(F)ccc3n2)c(OC)c1 | -22 | 2.04 | –
84 | Cc1n[nH]cc1CN(C)C(=O)c1cn2cc(Cl)cnc2n1 | -9 | 0.85 | –
85 | CNC(=O)c1cccc(Cn2nnnc2-c2ccncc2)c1 | -18 | 2.92 | –
